Results as given in the supplement of paper PMC7826260.
The other results are listed elsewhere or left out. One pool of 16,384 single-stranded DNAs met each Rep nickase domain in vitro for 1 h at 37 °C with 3 µM enzyme; only the middle of the 90-letter strands is printed. The score is log2 (uncut reads / reads without enzyme); the lower, the more was cut; hits are not called. Counts are relative to all reads; where an enzyme cuts many sequences, the uncut ones exceed 0.

Experiments:
Experiment in all cases: uncleaved DNA left, log2 of reads against the no-enzyme library (log2 ratio); higher = less cleavage (more negative = more Rep cleavage of the k-mer); sequences stand for … in CTCGTCCG…ACCGGAGA
[1] = tested on: T1, Rep nickase domain of Muscovy duck circovirus
T1 sequence (Rep 1-111, printed without the tag): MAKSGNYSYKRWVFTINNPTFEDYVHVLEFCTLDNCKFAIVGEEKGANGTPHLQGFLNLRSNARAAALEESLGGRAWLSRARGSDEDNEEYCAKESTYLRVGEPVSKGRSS
Experimental: (§1)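 A pool of 90-nt single-stranded DNAs with seven random bases just before the constant AC of the nick site (name = the seven bases) was cut by 3 µM recombinant His6-SUMO-tagged Rep nickase domain (300 nM DNA, 50 mM HEPES pH 8.0, 50 mM NaCl, 1 mM MnCl2, 1 h, 37 °C, three replicates). Uncut DNA was amplified and sequenced.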

[2] = tested on: T2, Rep nickase domain of banana bunchy top virus
T2 sequence (Rep 1-94, printed without the tag): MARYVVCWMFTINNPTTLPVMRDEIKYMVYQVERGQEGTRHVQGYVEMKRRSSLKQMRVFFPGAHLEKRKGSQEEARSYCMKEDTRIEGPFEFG
Experimental: as §1

[3] = tested on: T3, Rep nickase domain of cabbage leaf curl virus
T3 sequence (Rep 1-116, printed without the tag): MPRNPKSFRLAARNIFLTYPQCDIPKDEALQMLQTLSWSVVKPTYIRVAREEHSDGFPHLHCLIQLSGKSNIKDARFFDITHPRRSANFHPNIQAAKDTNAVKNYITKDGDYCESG
Experimental: as §1

[4] = tested on: T4, Rep nickase domain of chickpea chlorotic dwarf virus
T4 sequence (Rep 1-124, printed without the tag): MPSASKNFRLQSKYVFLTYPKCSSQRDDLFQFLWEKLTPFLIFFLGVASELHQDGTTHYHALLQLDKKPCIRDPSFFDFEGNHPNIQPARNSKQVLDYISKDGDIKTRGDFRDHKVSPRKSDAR
Experimental: as §1

[5] = tested on: T5, Rep nickase domain of faba bean necrotic yellows virus
T5 sequence (Rep 1-98, printed without the tag): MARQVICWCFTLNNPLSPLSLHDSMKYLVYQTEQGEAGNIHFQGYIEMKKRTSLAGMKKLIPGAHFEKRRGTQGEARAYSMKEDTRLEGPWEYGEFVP
Experimental: as §1

[6] = tested on: T6, Rep nickase domain of maize striate mosaic virus
T6 sequence (Rep 1-117, printed without the tag): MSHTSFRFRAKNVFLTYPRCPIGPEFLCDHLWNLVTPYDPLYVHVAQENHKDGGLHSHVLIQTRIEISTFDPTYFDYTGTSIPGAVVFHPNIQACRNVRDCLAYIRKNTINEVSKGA
Experimental: as §1

[7] = tested on: T7, Rep nickase domain of porcine circovirus 2
T7 sequence (Rep 2-116, printed without the tag): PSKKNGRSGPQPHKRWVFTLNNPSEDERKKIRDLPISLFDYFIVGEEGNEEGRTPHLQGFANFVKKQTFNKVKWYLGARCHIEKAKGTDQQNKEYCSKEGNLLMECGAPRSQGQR
Experimental: as §1

[8] = tested on: T8, Rep nickase domain of tomato yellow leaf curl virus
T8 sequence (Rep 1-136, printed without the tag): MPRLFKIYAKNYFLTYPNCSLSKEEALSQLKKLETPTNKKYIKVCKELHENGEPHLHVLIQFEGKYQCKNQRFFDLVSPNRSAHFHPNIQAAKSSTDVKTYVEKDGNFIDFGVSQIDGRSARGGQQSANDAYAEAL
Experimental: as §1

[9] = tested on: T9, Rep nickase domain of wheat dwarf virus
T9 sequence (Rep 1-137, printed without the tag): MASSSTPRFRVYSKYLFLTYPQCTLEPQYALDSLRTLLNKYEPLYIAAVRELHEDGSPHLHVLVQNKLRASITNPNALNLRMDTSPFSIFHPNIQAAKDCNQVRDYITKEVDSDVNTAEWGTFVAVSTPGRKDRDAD
Experimental: as §1

Sequence: CCTCTCC
- uncleaved DNA left (log2) [1]: -0.078
- uncleaved DNA left (log2) [2]: -0.0499
- uncleaved DNA left (log2) [3]: -0.00117
- uncleaved DNA left (log2) [4]: 0.00835
- uncleaved DNA left (log2) [5]: -0.00956
- uncleaved DNA left (log2) [6]: 0.845
- uncleaved DNA left (log2) [7]: 0.0341
- uncleaved DNA left (log2) [8]: -0.111
- uncleaved DNA left (log2) [9]: -0.129

Sequence: CTAGACC
- uncleaved DNA left (log2) [1]: -0.049
- uncleaved DNA left (log2) [2]: -0.0138
- uncleaved DNA left (log2) [3]: 0.0284
- uncleaved DNA left (log2) [4]: 0.298
- uncleaved DNA left (log2) [5]: -0.141
- uncleaved DNA left (log2) [6]: -0.237
- uncleaved DNA left (log2) [7]: -0.105
- uncleaved DNA left (log2) [8]: -0.0719
- uncleaved DNA left (log2) [9]: 0.0315

Sequence: TGACAGC
- uncleaved DNA left (log2) [1]: 0.0483
- uncleaved DNA left (log2) [2]: 0.0599
- uncleaved DNA left (log2) [3]: 0.573
- uncleaved DNA left (log2) [4]: 1.16
- uncleaved DNA left (log2) [5]: 0.00574
- uncleaved DNA left (log2) [6]: 1.27
- uncleaved DNA left (log2) [7]: 0.219
- uncleaved DNA left (log2) [8]: -0.0157
- uncleaved DNA left (log2) [9]: 0.161

Sequence: GCGAGGT
- uncleaved DNA left (log2) [1]: 0.0528
- uncleaved DNA left (log2) [2]: 0.0249
- uncleaved DNA left (log2) [3]: 0.14
- uncleaved DNA left (log2) [4]: 0.626
- uncleaved DNA left (log2) [5]: 0.128
- uncleaved DNA left (log2) [6]: 1.32
- uncleaved DNA left (log2) [7]: 0.061
- uncleaved DNA left (log2) [8]: 0.0425
- uncleaved DNA left (log2) [9]: 0.136

Sequence: TGCGTTA
- uncleaved DNA left (log2) [1]: 0.158
- uncleaved DNA left (log2) [2]: 0.0361
- uncleaved DNA left (log2) [3]: -0.287
- uncleaved DNA left (log2) [4]: -0.449
- uncleaved DNA left (log2) [5]: 0.262
- uncleaved DNA left (log2) [6]: -0.823
- uncleaved DNA left (log2) [7]: -0.0977
- uncleaved DNA left (log2) [8]: 0.159
- uncleaved DNA left (log2) [9]: 0.0855

Sequence: CGTGTGT
- uncleaved DNA left (log2) [1]: -0.101
- uncleaved DNA left (log2) [2]: -0.153
- uncleaved DNA left (log2) [3]: -0.441
- uncleaved DNA left (log2) [4]: -0.585
- uncleaved DNA left (log2) [5]: 0.0514
- uncleaved DNA left (log2) [6]: -0.77
- uncleaved DNA left (log2) [7]: -0.118
- uncleaved DNA left (log2) [8]: -0.0609
- uncleaved DNA left (log2) [9]: -0.195

Sequence: GGGATCT
- uncleaved DNA left (log2) [1]: 0.0117
- uncleaved DNA left (log2) [2]: -0.0141
- uncleaved DNA left (log2) [3]: 0.83
- uncleaved DNA left (log2) [4]: 1.93
- uncleaved DNA left (log2) [5]: -0.134
- uncleaved DNA left (log2) [6]: 2.19
- uncleaved DNA left (log2) [7]: 0.171
- uncleaved DNA left (log2) [8]: -0.0616
- uncleaved DNA left (log2) [9]: 0.0974

Sequence: GAACATC
- uncleaved DNA left (log2) [1]: 0.047
- uncleaved DNA left (log2) [2]: 0.113
- uncleaved DNA left (log2) [3]: 0.743
- uncleaved DNA left (log2) [4]: 1.67
- uncleaved DNA left (log2) [5]: -0.0577
- uncleaved DNA left (log2) [6]: 2.01
- uncleaved DNA left (log2) [7]: 0.214
- uncleaved DNA left (log2) [8]: -0.0249
- uncleaved DNA left (log2) [9]: 0.208

Sequence: ATTATGA
- uncleaved DNA left (log2) [1]: -0.0225
- uncleaved DNA left (log2) [2]: -0.138
- uncleaved DNA left (log2) [3]: -0.122
- uncleaved DNA left (log2) [4]: 0.0168
- uncleaved DNA left (log2) [5]: -0.0585
- uncleaved DNA left (log2) [6]: -0.866
- uncleaved DNA left (log2) [7]: -0.105
- uncleaved DNA left (log2) [8]: -0.0569
- uncleaved DNA left (log2) [9]: 0.0161

Sequence: ACTCAGA
- uncleaved DNA left (log2) [1]: 0.0664
- uncleaved DNA left (log2) [2]: 0.00709
- uncleaved DNA left (log2) [3]: -0.269
- uncleaved DNA left (log2) [4]: -0.367
- uncleaved DNA left (log2) [5]: -0.0208
- uncleaved DNA left (log2) [6]: -1.06
- uncleaved DNA left (log2) [7]: 0.0714
- uncleaved DNA left (log2) [8]: -0.149
- uncleaved DNA left (log2) [9]: -0.163

Sequence: TTGAGAG
- uncleaved DNA left (log2) [1]: 0.129
- uncleaved DNA left (log2) [2]: 0.0245
- uncleaved DNA left (log2) [3]: -0.366
- uncleaved DNA left (log2) [4]: -0.387
- uncleaved DNA left (log2) [5]: 0.0354
- uncleaved DNA left (log2) [6]: -0.914
- uncleaved DNA left (log2) [7]: 0.3
- uncleaved DNA left (log2) [8]: 0.225
- uncleaved DNA left (log2) [9]: -0.0761

Sequence: TTGTACT
- uncleaved DNA left (log2) [1]: -3.67
- uncleaved DNA left (log2) [2]: -2.37
- uncleaved DNA left (log2) [3]: -0.237
- uncleaved DNA left (log2) [4]: -2.54
- uncleaved DNA left (log2) [5]: -2.89
- uncleaved DNA left (log2) [6]: -0.653
- uncleaved DNA left (log2) [7]: -3.82
- uncleaved DNA left (log2) [8]: -0.0866
- uncleaved DNA left (log2) [9]: -0.261

Sequence: TTCACCT
- uncleaved DNA left (log2) [1]: -0.0673
- uncleaved DNA left (log2) [2]: 0.0447
- uncleaved DNA left (log2) [3]: 0.133
- uncleaved DNA left (log2) [4]: -1.99
- uncleaved DNA left (log2) [5]: 0.00116
- uncleaved DNA left (log2) [6]: 0.0968
- uncleaved DNA left (log2) [7]: -0.47
- uncleaved DNA left (log2) [8]: 0.0567
- uncleaved DNA left (log2) [9]: 0.0556

Sequence: GATGTTC
- uncleaved DNA left (log2) [1]: -0.00801
- uncleaved DNA left (log2) [2]: -0.026
- uncleaved DNA left (log2) [3]: 0.234
- uncleaved DNA left (log2) [4]: 0.161
- uncleaved DNA left (log2) [5]: -0.00732
- uncleaved DNA left (log2) [6]: 0.967
- uncleaved DNA left (log2) [7]: 0.0397
- uncleaved DNA left (log2) [8]: 0.128
- uncleaved DNA left (log2) [9]: 0.0266
